In all, about 33,000 sequences were measured (“E-score (-0.5 to 0.5)”: median about -0.012, highest 2% from about 0.27 on). The list shows a part of the results.

This assay concerns the target T1, Vhr1 (UniProt P40522).
T1 sequence: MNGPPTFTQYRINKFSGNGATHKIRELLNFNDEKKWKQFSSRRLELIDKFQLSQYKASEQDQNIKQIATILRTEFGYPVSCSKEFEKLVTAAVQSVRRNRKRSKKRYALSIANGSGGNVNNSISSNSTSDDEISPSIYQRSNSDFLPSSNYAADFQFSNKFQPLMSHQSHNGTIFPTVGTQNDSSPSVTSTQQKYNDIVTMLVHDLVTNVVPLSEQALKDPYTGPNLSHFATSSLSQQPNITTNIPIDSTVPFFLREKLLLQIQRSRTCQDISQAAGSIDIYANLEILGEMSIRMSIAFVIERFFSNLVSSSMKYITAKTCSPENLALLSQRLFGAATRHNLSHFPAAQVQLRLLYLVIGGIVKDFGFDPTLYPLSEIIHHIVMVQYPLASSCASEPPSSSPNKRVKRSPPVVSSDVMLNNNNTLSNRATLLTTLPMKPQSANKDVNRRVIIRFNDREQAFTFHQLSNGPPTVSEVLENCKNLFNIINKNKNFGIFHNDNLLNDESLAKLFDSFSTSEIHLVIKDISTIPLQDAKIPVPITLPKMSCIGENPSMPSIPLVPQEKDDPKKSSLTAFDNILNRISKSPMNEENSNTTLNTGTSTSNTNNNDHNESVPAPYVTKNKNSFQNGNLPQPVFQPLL
The assay can be described thus: PBM E-score (8-mer binding enrichment) (E-score (-0.5 to 0.5)); higher = stronger / more preferred TF binding; most listed sequences are background and not binding sites. As to conditions: protein concentration: 200 nM; construct: GST-full length. How it is done: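 Universal 'all 10-mer' protein binding microarrays (Agilent AMADID 015681) probed with GST-tagged S. cerevisiae TFs (full-length or DBD) made by in vitro transcription/translation (PURExpress), about 100-200 nM. Bound TF was detected with fluorescent anti-GST. Each ungapped 8-mer (which stands for itself and its reverse complement) is scored by the PBM enrichment score (E-score), a modified Wilcoxon-Mann-Whitney statistic from -0.5 to +0.5, computed with the Universal PBM Analysis Suite. Scale: above 0.35 generally sequence-specific binding.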
For CGAAATGA, the “PBM E-score” value was 0.19.

As for CAGAAGGC, the “PBM E-score” value was -0.0707. The figure for CTGTTGGA is -0.096; for AGACAGAA it is -0.126; for ATTGAGTA it is 0.308. For GGAAGAGA the value was -0.0859; for CCGCCAGC, 0.163. For GAACGTCA the value was -0.224. As for CGGTATTA, the “PBM E-score” value was determined as 0.155. The figure for ACAGATGG is -0.139. For AGGATGAC the value was 0.112. For ATGGTCGA the value was -0.0168; for ACACGTGT, 0.254; for AGAGTCAT, 0.45. For the sequence GCGCGTTA, the “PBM E-score” value was -0.123. For AGCGTCAA the value was -0.0226. The figure for ATTGACGC is -0.0961. The figure for ACTTCGAA is -0.243; for ACCCCCAC it is -0.225; for TAAGGGGA it is -0.255. In the case of ATAACAAT, the “PBM E-score” value stood at 0.119. For ATCATCGG the value was 0.212; for AAGGACCA, -0.0869; for ATATCGCA, 0.0551. For AGCGGGAT the value was 0.07; for CAGTATCC, 0.124; for CGGATAAC, 0.0761. For GAACCGAC the value was 0.201; for GGGCGCAC, -0.274; for CTCCCTAC, -0.062. CGTGGTCA: the “PBM E-score” value was determined as 0.19. Regarding ATAAAATG, the “PBM E-score” value was -0.0717. For AATATTAC the value was -0.0418; for ACTCTGGC, 0.164.

On to CAGTCCTA, for which the “PBM E-score” value came out at 0.00457. Consider CAGCGATG, for which the “PBM E-score” value amounted to 0.0814. The figure for GAGCCAAC is -0.0688.

Turning to GAGTTGAC, the “PBM E-score” value came out at 0.0177. The figure for ACCGGACT is -0.0358. Turning to AACTAGGC, the “PBM E-score” value is -0.00957.

For CGCTTCCG, the “PBM E-score” value is -0.185. For AGTTCCCG the value was -0.121.

AGCAAGAA: the “PBM E-score” value is -0.0163. For GGGTTTGA the value was -0.0336; for ATTTCGGA, -0.0873; for GTGTGTCA, 0.248. The figure for GGACACGA is -0.0165. The figure for CATCAGAA is -0.0535; for GAAACCCC it is -0.0639; for AGGGCTGC it is -0.0649. For TACACTAA, the “PBM E-score” value was 0.0501.

Take ACATCACG: the “PBM E-score” value is -0.0572. The figure for ACCGCCCC is 0.325; for ATGAGATG it is 0.106; for CCCCGCTC it is 0.0661. For ACGGTCCA the value was -0.00757; for CGATCAAC, -0.176. Regarding GCTATATA, the “PBM E-score” value is 0.0669.

Turning to GTCTGCAC, the “PBM E-score” value is -0.11.

Consider AGCTTAAG, for which the “PBM E-score” value was -0.122. On to AAAGAGCC, for which the “PBM E-score” value was -0.178. The figure for ATGGCCTG is 0.0769.

For CTTTGCTC, the “PBM E-score” value is -0.0277.

Regarding TAGCTGAA, the “PBM E-score” value was -0.124.

Take CCGTCCGA: the “PBM E-score” value is -0.222. The figure for ACACGTCC is -0.199; for CATTGACG it is 0.0587. For CCGTAGCA the value was -0.122. For GAACGAAA the value was -0.182; for AGGTTAAC, -0.0375. On to CCAGTGGG, for which the “PBM E-score” value was found to be 0.0379. For GGTACTTA the value was -0.103; for ACCTTTGC, -0.148.

In the case of ATAGAGTC, the “PBM E-score” value turned out to be 0.11. The figure for AAATCGCT is -0.326. The figure for CAGTAGCC is -0.208; for AAGATCGC it is -0.25. As for CCGGGAAG, the “PBM E-score” value was -0.0387. For AGAGTATG the value was -0.175; for CGATACAG, 0.00744. The figure for CCAATTTC is -0.182; for CGACAACG it is -0.106; for AACTGCGG it is -0.0815.

Regarding ATTAACGA, the “PBM E-score” value is 0.158.

For the sequence AATAGAGG, the “PBM E-score” value was -0.155. The figure for CCGCCGAG is -0.0293.

These data come from the supplement of paper PMC3334620.
